According to patent US7803910B2, “Soluble CD164 polypeptides” (Merck Serono S.A., priority 2005, dated 2010):

How the values were obtained:
[1] = system: peritoneal recruitment of macrophages; test: Thioglycollate-induced leukocyte peritoneal recruitment assay; format: in vivo, C3H mice
Description: The effect of a sCD164 variant on immune cells recruitment was tested using the thioglycollate-induced leukocyte peritoneal recruitment assay. In this example the capacity of ssCD164-Fc (SEQ ID NO: 16) to decrease monocytes/macrophage recruitment was evaluated.
Forty-eight hours after the challenge, the animals were sacrificed and the lavage of the peritoneal cavity was conducted using 2×5 ml PBS-1 mM EDTA (+4° C.). After centrifugation (10 min at 3000 rpm), the pellet was resuspended in 1 ml PBS. The peritoneal cells were counted using a Beckman/Coulter counter. Dexamethasone (1 mg/kg), the anti-inflammatory compound was used as reference positive control.

[2] = system: LPS-induced TNFα release; test: LPS-induced TNFalpha release in mice (Example 5); format: in vivo, C3H mice; details: 1 mg/kg iv, 15 minutes prior to LPS; P<0.001
Description: C3H mice (Elevage Janvier) (8 week old), received E. Coli's LPS (O111:B4, Sigma, 0.3 mg/kg, ip) 15 minutes after the administration of the test molecules. LPS was solubilized in sterile saline. Dexamethasone (0.1 mg/kg, sc) was used as reference. 24 h later, the animals were sacrificed and the blood was sampled. Plasma levels of TNF-αwere determined in serum using an ELISA kit (R&D). Statistical analysis was determined with an ANOVA test followed by a post-test of Dunnett.

[3] = system: C3H mice; test: Concanavalin A-induced hepatitis in mice; format: in vivo; details: 1 hr before concanavaline A, 18 h
Description: Several sCD164 variants have been shown in vitro to inhibit secretion of certain cytokines by ConA-stimulated human peripheral blood mononuclear cells (PBMC), see Examples 2 and 3 above. Since cytokines play a crucial role in T-cell induced ConA induced liver hepatitis (Seino et al. 2001, Kusters, 1996; Toyonaga et al. 1994), the present model was used to further test the sCD164 variants.
Eighteen hours later, the animals were sacrificed and the blood was sampled. Serum levels of transaminases (alanine transaminase (ALAT), aspartate aminotransferase (ASAT)) were determined in serum using a clinical analyzer (Hitachi). Dexamethasone (0.3 mg/kg, sc) was used as reference.

[4] = system: female mice (Balb/c); test: Dextran Sodium Sulfate-induced ulcerative colitis model; format: in vivo; details: Study 3; 1 mg/kg, sc
Description: The DSS model of colitis mimics some aspects of the human affection such as macrophage infiltration and up regulation of inflammatory cytokines (i.e. TNFα, IL-1p, IL-6) in the colon mucosa.
Ulcerative colitis (UC) was induced in female mice (Balb/c, 20-22 g, Elevage Janvier) by Dextran Sodium Sulfate (DSS 4%) administered in drinking water (oral route). The mice had free access to DSS during 7 days. Body weight was determined daily. The severity of the UC was assessed by a clinical score estimating the constituency of the stool (0=firm, 1=loose, 2=diarrhea) and the presence of blood (0=no blood, 1=occult blood, 2=gross rectal bleeding). Seven days after the induction of the disease, the animals were sacrificed. The length and the weight of the colon were determined and the ratio Weight/Length/100 g body weight was calculated. The spleen weight was also determined. Blood was sampled to determine serum amyloid protein (SAA) using a specific ELISA.
Test substances or vehicle (PBS/0.02% BSA) was administered at days 3, 4, 5 and 6 after the induction of the UC. Enbrel® (1 mg/kg, sc) was used as reference compound. Three studies were performed as per the following table:
In Study 3, the content of IL-1β in the colon was also measured.

[5] = system: Balb/c mice; test: K/BxN serum transfer model of arthritis; format: in vivo; details: for decrease of clinical score / decrease of paw swelling: 5 days per week
Description: This is a passive model of arthritis, induced by serum transfer of K/B×N mice (spontaneously develop arthritis) to naïve mice. This model depends on macrophages and neutrophils. Inflammatory cytokines such as TNFα and IL-1β play an important role in the development of the disease.
Eight week old Balb/c mice (Charles River) received by iv route 150 μl of K/B×N serum (Charles McKay, Australia), containing high level of auto-antibodies against glucose-6-phosphate isomerase. They evolved severe arthritis assessed with a clinical score (0-12) evaluating the presence of swelling, erythema, edema, joint rigidity and ankylosis. The final score was the sum of scores on individual paws. The swelling of ankle, fore paw and hind paw was measure using a caliper. The clinical score and the swelling were determined every day. Fourteen days after the induction of the disease blood was sampled to determine osteocalcin and the legs were removed and fixed in formalin for histology.
Enbrel® (10 mg/kg, sc, once daily, 3 days a week) was used as reference compound.

[6] = Study 1, 0.3 mg/kg ip once daily

B1: sCD164-Fc: SEQ ID NO: 16, Fc-fusion protein comprising sCD164 fused to an Fc part of an immunoglobulin (protein)
chain: DKNTTQHPNVTTLAPISNVTSAPVTSLPLVTTPAPETCEGRNSCVSCFNVSVVNTTCFWIECKDESYCSHNSTVSDCQVGNTTDFCSVSTATPVPTANSTAKPTVQPSPSTTSKTVTTSGTTNNTVTPTSQPVRKSTFDA[human IgG1 Fc not printed]
modifications: homo sapiens
- reduction of peritoneal recruitment of macrophages ([1]; 0.003 mg/kg iv, 15 min before and 24 h after thioglycollate, 48 h): 32%
- reduction of peritoneal recruitment of macrophages ([1]; 0.03 mg/kg iv, 15 min before and 24 h after thioglycollate, 48 h): 38%
- reduction of peritoneal recruitment of macrophages ([1]; 0.3 mg/kg iv, 15 min before and 24 h after thioglycollate, 48 h): 34%
- reduction of peritoneal recruitment of macrophages ([1]; 0.3 mg/kg sc): −27%
- LPS-induced TNFα release [2]: significantly decrease
- change of increase in serum transaminase ALAT ([3]; 0.1 mg/kg sc): −52%
- change of increase in serum transaminase ASAT ([3]; 0.1 mg/kg sc): −54%
- change of increase in serum transaminase ALAT ([3]; 0.3 mg/kg sc): −69%
- change of increase in serum transaminase ASAT ([3]; 0.3 mg/kg sc): −64%
- change of increase in serum transaminase ALAT ([3]; 1 mg/kg sc): −59%
- change of increase in serum transaminase ASAT ([3]; 1 mg/kg sc): −63%
- colon reduction [4]: improved significantly
- splenomegaly [4]: improved significantly
- reduction of serum osteocalcin (trend) ([5]; Study 1, 0.3 mg/kg ip): 6%
- decrease of clinical score [5, 6]: 7%
- decrease of paw swelling [5, 6]: 9%
- reduction of serum osteocalcin (trend) ([5]; Study 1, 1 mg/kg ip): 11%
- decrease of clinical score ([5]; Study 1, 1 mg/kg ip once daily): 14%
- decrease of paw swelling ([5]; Study 1, 1 mg/kg ip once daily): 19%
- reduction of serum osteocalcin (trend) ([5]; Study 1, 3 mg/kg ip): 37%
- decrease of clinical score ([5]; Study 1, 3 mg/kg ip once daily): 17%
- decrease of paw swelling ([5]; Study 1, 3 mg/kg ip once daily): 21%
- efficacy, dose dependence ([5]; Study 1, ip route): dose dependent
- reduction of serum osteocalcin (trend) ([5]; Study 2, 1 mg/kg sc): 16%
- decrease of clinical score ([5]; Study 2, 1 mg/kg sc once daily): 6%
- reduction of paw swelling ([5]; Study 2, 3 mg/kg sc): 14%
- reduction of serum osteocalcin (trend) ([5]; Study 2, 3 mg/kg sc): 31%
- decrease of clinical score ([5]; Study 2, 3 mg/kg sc once daily): 14%
- efficacy, dose dependence ([5]; Study 2, sc route): dose dependent
